In US20250387474A1 (MEDICENNA THERAPEUTICS, published 2025):

Assays:
mouse IL-13Rα2 = biological target: T1, mouse IL-13Rα2 (mouse, UniProt O88786 22-334); experiment: SPR, construct on chip, receptor as analyte
T1 sequence (looked up): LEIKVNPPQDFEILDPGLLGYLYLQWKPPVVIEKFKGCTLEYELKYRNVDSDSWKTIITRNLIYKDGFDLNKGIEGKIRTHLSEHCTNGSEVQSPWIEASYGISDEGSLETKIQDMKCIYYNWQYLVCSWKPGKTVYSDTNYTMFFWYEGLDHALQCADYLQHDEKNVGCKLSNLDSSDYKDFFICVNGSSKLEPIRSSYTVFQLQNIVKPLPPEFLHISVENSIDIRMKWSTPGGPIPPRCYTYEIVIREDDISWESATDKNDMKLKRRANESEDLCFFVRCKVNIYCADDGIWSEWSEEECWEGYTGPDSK

cynomolgus IL-13Rα1 = biological target: T2, cynomolgus IL-13Rα1 (cynomolgus, UniProt A0A7N9D0M5 20-341); experiment: SPR, construct on chip, receptor as analyte
T2 construct: also called cyno IL-13Rα1
T2 sequence: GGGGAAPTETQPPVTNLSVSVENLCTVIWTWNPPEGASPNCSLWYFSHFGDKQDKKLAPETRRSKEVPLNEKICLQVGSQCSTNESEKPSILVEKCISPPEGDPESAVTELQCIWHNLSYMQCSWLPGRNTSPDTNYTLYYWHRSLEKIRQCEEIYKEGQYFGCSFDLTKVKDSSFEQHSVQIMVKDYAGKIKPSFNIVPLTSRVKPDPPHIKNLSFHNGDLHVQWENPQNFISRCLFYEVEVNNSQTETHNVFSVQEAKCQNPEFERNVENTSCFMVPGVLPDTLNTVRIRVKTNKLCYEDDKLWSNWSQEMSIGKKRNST

mouse IL-13Rα1 = biological target: T3, mouse IL-13Rα1 (mouse, UniProt O09030 26-340); experiment: SPR, construct on chip, receptor as analyte
T3 sequence (looked up): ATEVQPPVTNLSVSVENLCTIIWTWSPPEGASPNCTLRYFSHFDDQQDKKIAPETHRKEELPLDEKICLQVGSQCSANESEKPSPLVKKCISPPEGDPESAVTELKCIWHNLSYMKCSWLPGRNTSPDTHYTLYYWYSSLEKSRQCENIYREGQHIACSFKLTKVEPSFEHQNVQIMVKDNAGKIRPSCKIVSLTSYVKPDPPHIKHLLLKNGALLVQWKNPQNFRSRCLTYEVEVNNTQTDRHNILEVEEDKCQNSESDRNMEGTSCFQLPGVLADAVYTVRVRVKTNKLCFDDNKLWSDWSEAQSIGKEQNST

human IL-13Rα2 [1] = biological target: T4, human IL-13Rα2 (human, UniProt Q14627 27-343); experiment: SPR, historical data of the applicant
T4 construct: also called Human IL-13 R alpha 2 Protein; IL-13 decoy receptor
T4 sequence (looked up): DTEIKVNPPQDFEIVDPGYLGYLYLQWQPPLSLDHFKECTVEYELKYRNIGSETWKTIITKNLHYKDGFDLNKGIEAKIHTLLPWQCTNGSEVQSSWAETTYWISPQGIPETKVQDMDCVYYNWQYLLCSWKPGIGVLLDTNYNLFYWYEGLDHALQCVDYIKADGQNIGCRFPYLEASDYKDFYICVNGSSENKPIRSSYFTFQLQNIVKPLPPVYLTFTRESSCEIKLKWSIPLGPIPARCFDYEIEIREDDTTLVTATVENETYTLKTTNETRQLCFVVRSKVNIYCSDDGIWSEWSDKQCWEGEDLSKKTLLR

human IL-13Rα2 [2] = biological target: T4, human IL-13Rα2; experiment: SPR on immobilized ligands with receptors as flow analytes using MCK, top trace marked 250 nM
human IL-13Rα1 [3] = biological target: T5, human IL-13Rα1 (human, UniProt P78552 22-343); experiment: SPR, construct on chip, receptor as analyte
T5 construct: also called Human IL-13 R alpha 1 Protein; IL-13 functional receptor
T5 sequence (looked up): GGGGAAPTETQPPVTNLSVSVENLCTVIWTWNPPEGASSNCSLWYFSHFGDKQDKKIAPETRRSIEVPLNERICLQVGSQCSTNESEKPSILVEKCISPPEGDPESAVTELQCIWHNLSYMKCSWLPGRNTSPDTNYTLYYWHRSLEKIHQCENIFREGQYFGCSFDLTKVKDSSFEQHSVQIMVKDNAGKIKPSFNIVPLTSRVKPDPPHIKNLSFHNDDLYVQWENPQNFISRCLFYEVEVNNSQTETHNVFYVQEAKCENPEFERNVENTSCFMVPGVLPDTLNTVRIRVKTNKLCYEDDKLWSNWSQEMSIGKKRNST

human IL-13Rα2 [4] = biological target: T4, human IL-13Rα2; experiment: SPR, construct on chip, receptor as analyte
human IL-13Rα1 [5] = biological target: T5, human IL-13Rα1; experiment: SPR, construct on chip, receptor as analyte; remark: listed apart in the source
human IL-13Rα2 [6] = biological target: T4, human IL-13Rα2; experiment: SPR, construct on chip, receptor as analyte; remark: listed apart in the source

- Kd (mouse IL-13Rα2): 34.8 nM
- Kd (cynomolgus IL-13Rα1): 65.5 nM
- Kd (mouse IL-13Rα1): 25.5 nM
- Kd (human IL-13Rα2 [1]): 19 nM
- Kd (human IL-13Rα2 [2]): 19.6 nM
B1: Fc-MDNA413^R39/Q111 (1:2) (Fc fusion)
chain: [sequence of human IgG1 Fc with changes not given]GGGSGGGGSGGGGSPGPVPPSTAVRALIEELINITQNQKAPLCNGSMVWSINRTAGMYCAALESLINVSGCSAIEKTQDMLSGFCPHKVSAGQFSSLHVRSSKIEVAQFVKDLLFHLRTLFREGQFN
notes: also called Fc-MDNA413 (1:2)

- Kd (human IL-13Rα1 [3]): 470 nM
- Kd (human IL-13Rα2 [4]): 0.15 nM
B2: Fc-IL13 (1:1 KIH) (Fc fusion)
chain: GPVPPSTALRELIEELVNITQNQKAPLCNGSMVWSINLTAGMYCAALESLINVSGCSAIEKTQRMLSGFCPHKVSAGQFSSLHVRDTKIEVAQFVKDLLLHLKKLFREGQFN

- Kd (human IL-13Rα1 [5]): 39.4 nM
- Kd (human IL-13Rα2 [6]): 1.9 nM
B3: MDNA132.15-Fc-MDNA413 (1:1:2 KIH) (Fc fusion)
chain 1: PGPVPPSTAHRELIRELVNITQNQKAPLCNGSMVWSINLTAGMYCAALESLINVSGCSAIEKTQRMLSGFCPHKVSAGQFSSLHVTGRKIEVAQFVKDLLLHLKKLFKEGQFNGGGGSGGGGSGGGGSDKTHTCPPCPAPELLGGPSVFLFPPKPKDTLMISRTPEVTCVVVDVSHEDPEVKFNWYVDGVEVHNAKTKPREEQYASTYRVVSVLTVLHQDWLNGKEYKCKVSNKALPAPIEKTISKAKGQPREPQVYTLPPCRDELTKNQVSLWCLVKGFYPSDIAVEWESNGQPENNYKTTPPVLDSDGSFFLYSKLTVDKSRWQQGNVFSCSVMHEALHNHYTQKSLSLSPGGGGGSGGGGSGGGGSPGPVPPSTAVRALIEELINITQNQKAPLCNGSMVWSINRTAGMYCAALESLINVSGCSAIEKTQDMLSGFCPHKVSAGQFSSLHVRSSKIEVAQFVKDLLFHLRTLFREGQFN
chain 2: [sequence of human IgG1 Fc with changes not given]GGGGSGGGGSGGGGSPGPVPPSTAVRALIEELINITQNQKAPLCNGSMVWSINRTAGMYCAALESLINVSGCSAIEKTQDMLSGFCPHKVSAGQFSSLHVRSSKIEVAQFVKDLLFHLRTLFREGQFN

Read-outs that look alike come from different tables or passages of the source. Each block holds one binder with its values, some of them ahead of it.
